Test results: article PMC4336329 (PLoS ONE, 2015)
Hit rate of the full screen: of about 310,000 compounds, about 2,200 (0.71%) showed an effect of 50% or more. The effect is printed as a negative number. The list shows a part of the results.

target: human ether-à-go-go-related gene (hERG) potassium channel (human, UniProt Q12809); assay: primary screen, population patch clamp on CHO cells stably expressing hERG
Sequence (Q12809 whole entry, looked up): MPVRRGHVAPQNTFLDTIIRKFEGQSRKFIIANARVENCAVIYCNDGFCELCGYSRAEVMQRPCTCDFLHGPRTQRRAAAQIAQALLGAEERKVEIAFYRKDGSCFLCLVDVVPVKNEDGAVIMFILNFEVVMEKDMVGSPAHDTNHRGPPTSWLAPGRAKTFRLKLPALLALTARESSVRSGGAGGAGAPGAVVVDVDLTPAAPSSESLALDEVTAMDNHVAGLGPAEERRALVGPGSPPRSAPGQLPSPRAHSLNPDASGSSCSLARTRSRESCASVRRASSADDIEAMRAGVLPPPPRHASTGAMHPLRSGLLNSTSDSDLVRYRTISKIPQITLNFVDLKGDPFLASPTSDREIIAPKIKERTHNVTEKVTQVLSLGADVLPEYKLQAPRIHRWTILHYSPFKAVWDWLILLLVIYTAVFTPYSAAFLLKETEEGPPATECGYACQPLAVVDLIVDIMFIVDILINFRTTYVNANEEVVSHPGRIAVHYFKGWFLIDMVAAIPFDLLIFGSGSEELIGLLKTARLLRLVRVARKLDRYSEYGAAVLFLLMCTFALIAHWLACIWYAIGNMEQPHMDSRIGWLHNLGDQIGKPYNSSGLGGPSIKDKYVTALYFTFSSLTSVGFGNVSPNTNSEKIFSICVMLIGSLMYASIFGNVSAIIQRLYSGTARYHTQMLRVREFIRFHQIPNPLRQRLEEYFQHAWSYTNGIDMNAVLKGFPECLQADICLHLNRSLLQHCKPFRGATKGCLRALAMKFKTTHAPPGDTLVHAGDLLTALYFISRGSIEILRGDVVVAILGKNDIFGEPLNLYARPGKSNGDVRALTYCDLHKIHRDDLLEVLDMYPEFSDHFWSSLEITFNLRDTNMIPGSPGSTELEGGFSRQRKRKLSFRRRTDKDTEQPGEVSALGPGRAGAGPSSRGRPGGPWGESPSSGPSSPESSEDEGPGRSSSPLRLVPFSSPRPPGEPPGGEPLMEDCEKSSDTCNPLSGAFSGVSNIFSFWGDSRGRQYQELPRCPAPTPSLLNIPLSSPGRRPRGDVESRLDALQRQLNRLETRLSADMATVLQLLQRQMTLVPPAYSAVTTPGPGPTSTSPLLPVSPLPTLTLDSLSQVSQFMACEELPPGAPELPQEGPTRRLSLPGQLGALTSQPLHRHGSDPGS

Row | Structure (SMILES) | hERG current change (%, negative = inhibition) at 1uM
1 | O=C(O)CSC1CC(=O)N(c2ccc(Cl)c(Cl)c2)C1=O (centres unmarked) | 11.7%
2 | Cc1nn(C2CCS(=O)(=O)C2)c(Cl)c1/C=C/C(=O)OCC(=O)c1cc(C)n(-c2ccc(F)cc2)c1C (centres unmarked) | 6.45%
3 | CCCC1=Nc2cc(C(=O)NCCN3CCOCC3)ccc2Sc2ccc(C)cc21 | 11.9%
4 | COc1cccc(C(=O)SC2=NCCS2)c1 | 6.91%
5 | COc1ccccc1NC(=O)C1=C(C)NC(=O)NC1c1cccc(OC)c1OC (centres unmarked) | 8.49%
6 | C[C@@H](NC(=O)c1nc[nH]c1C(=O)NCc1ccc(CNC(=O)OC(C)(C)C)cc1)c1ccccc1 | 7.66%
7 | Oc1nc(Nc2ccccc2)sc1/C=C1\C=Nc2ccccc21 | 7.84%
8 | COC(=O)C1CCN(c2cnccn2)CC1 | 10.1%
9 | CC1CCC(NC(=O)CNC(=O)Cc2cccc3ccccc23)CC1 (centres unmarked) | 10.3%
10 | CN(C)c1ccc(NC(=O)CN2CCC(N3CCCCC3)CC2)cc1.O=C(O)C(=O)O | 12%
11 | Clc1ccc(NCn2cncn2)nc1 | 5.87%
12 | Cc1cccc(OCc2cc(-c3ccccc3)no2)c1C | 15.3%
13 | COc1ccc(OC)c(S(=O)(=O)N(C(C)=O)c2ccc3oc(=O)sc3c2)c1 | -3.96%
14 | CC1Cn2c(nc3sc4c(c3c2=O)CC(C)(C)OC4)N1CCO (centres unmarked) | 12.2%
15 | Cc1c(Cl)cccc1NS(=O)(=O)c1c(C(=O)N2CCOCC2)c(C)n(C)c1C | -1.38%
16 | Cn1c(SCC(=O)Nc2ccc(F)cc2)nc2c([nH]c3ccccc32)c1=O | 5.63%
17 | Cc1ccc(-c2nnc(N3CCN(C(=O)c4cccs4)CC3)c3ccccc23)cc1 | 1.85%
18 | COc1nnc(-c2ccc(N3CCOCC3)c(NC(=O)c3ccccc3)c2)c2ccccc12 | -2.92%
19 | CCOc1ccc(S(=O)(=O)NCCC(=O)Nc2nnc(C)s2)cc1 | 12.9%
20 | CCOc1ccccc1NC(=S)N1CCN(c2cccc(OC)c2)CC1 | 8.71%
21 | Cc1nc(NCC2CC2)c2nnn(Cc3ccccc3)c2n1 | 11.5%
22 | C[N+]1(CC(=O)OCCCc2ccccc2)CCCC1.[I-] | 11.3%
23 | CC1CCN(S(=O)(=O)c2ccc(C(=O)Nc3nnc(C4CC4)o3)cc2)CC1 | 11.4%

Row | Structure (SMILES) | hERG current change (%, negative = inhibition) at 1uM
24 | Cc1c(NC(=O)COc2cccc(F)c2)c(=O)n(-c2ccccc2)n1C | 12.3%
25 | O=C(Nc1cccnc1Cl)C1=NN(c2ccccc2)C(=O)CC1 | 11.1%
26 | COC(=O)c1cc(S(=O)(=O)N2CCC(C(N)=O)CC2)oc1C | 12.2%
27 | NNC(=O)Nc1cccc(C(F)(F)F)c1 | 13.9%
28 | O=c1cc(CCl)[nH]c2nc3ccccc3n12 | 8.93%
29 | Cc1cc(CNC(=O)COc2ccc(C)c(C)c2)c2ccccc2n1 | 6.1%
30 | COc1ccc(N2CC(C)Cn3c2nc2c3c(=O)n(Cc3ccccc3F)c(=O)n2C)c(OC)c1 (centres unmarked) | -3.43%
31 | COc1cc(NC(=O)c2ccco2)c(C(=O)O)cc1OC | -5.47%
32 | O=C(CSc1nnc(-c2ccc(OC(F)F)cc2)o1)NCc1cccs1 | -2.17%
33 | CCOc1ccccc1C(=O)Nc1nncs1 | 10.5%
34 | COc1ccccc1NS(=O)(=O)c1ccc(C(=O)NCCCn2ccnc2)cc1 | 13.1%
35 | COc1cccc(-c2nn(-c3ccc(C)cc3)cc2C(=O)NCC2CCCO2)c1 (centres unmarked) | -0.814%
36 | CC(C)NC(=S)N/N=C/c1cccs1 | 6.26%
37 | O=C(Nc1ccc[n+](CC(=O)c2cccc3ccccc23)c1)c1ccccc1.[Br-] | -7.08%
38 | O=C(OCCN1C(=O)CCC1=O)c1ccc(S(=O)(=O)N2CCCCC2)cc1 | 8.46%
39 | CCOc1ccccc1NC(=O)CN1CCc2ccccc2C1 | 5.32%
40 | COc1ccc(-n2nc(C(=O)NCC(=O)N3CCN(c4ccccc4)CC3)c3ccccc3c2=O)c(OC)c1 | 14.8%
41 | CC(=O)Nc1ccc(Sc2ncccc2C(=O)Nc2cc(Cl)cc(Cl)c2)cn1 | 15.9%
42 | CN1CCN(c2nc(NCCOC34CC5CC(CC(C5)C3)C4)nc(OCC(F)(F)F)n2)CC1 | 4.54%
43 | CC1(c2ccccc2)NC(=O)N(CC(=O)Nc2ccc([N+](=O)[O-])cc2)C1=O (centres unmarked) | -12.7%
44 | COc1ccsc1C(=O)N1CCN(Cc2ccc3c(c2)OCO3)CC1 | 0.457%
45 | N#Cc1sc(=O)[nH]c1Cl | 12.4%
46 | COc1cccc(N2CN(C3CCCCC3)CNC2=S)c1 | 12.9%

Row | Structure (SMILES) | hERG current change (%, negative = inhibition) at 1uM
47 | CCOc1ccccc1Nc1ccnc2cc(Cl)ccc12 | -2.44%
48 | CC(=O)NC12CC3CC(C1)CC(C(=O)Nc1nc4ccc(F)cc4s1)(C3)C2 | -12.6%
49 | Cc1cc(C)n2nc(C(=O)Oc3ccc4c(c3)OCO4)nc2n1 | 24.6%
50 | CC(C)COC(=O)/C(C#N)=C/c1c[nH]c2ccccc12 | 6.85%
51 | COc1ccccc1/C=C/C=N/NC(=O)c1ccc(=O)n(C)c1 | 5.36%
52 | O=C(c1cn(-c2ccccc2)nc1-c1ccc(F)cc1)N1CCOCC1 | -2.32%
53 | Cc1cc(C)c(C)c(S(=O)(=O)NCC(=O)Nc2ccc(F)cc2)c1C | 7.54%
54 | COc1ccccc1CNC(=O)COC(=O)c1ccc(N2CCCC2=O)cc1 | 15.7%
55 | C/C(NCCN1CCOCC1)=C(\C#N)C(N)=O | -3.71%
56 | CC(=O)N1CCc2cc(S(=O)(=O)CCC(=O)NCc3ccc(F)cc3)ccc21 | 13.7%
57 | COc1ccc(-c2cnc(N)n2C)cc1 | -7%
58 | COc1ccc(S(=O)(=O)NCC(c2ccc3c(c2)OCO3)N2CCN(C)CC2)cc1OC (centres unmarked) | 2.62%
59 | O=C(CC1Sc2ccccc2NC1=O)NNC(=O)Nc1ccc(Cl)cc1 (centres unmarked) | 9.26%
60 | COC(=O)Cn1cnc2scc(-c3ccc(C)cc3)c2c1=O | 10.5%
61 | CCc1ccc(S(=O)(=O)Nc2nccs2)cc1 | 11.8%
62 | O=C(CN1CCCSc2ccccc21)N1CCN(S(=O)(=O)c2cccc(F)c2)CC1 | 2.18%
63 | Cc1ccc(CS(=O)(=O)c2nsc(C)c2C#N)cc1 | 11.5%
64 | CC(=O)C1=C(O)C(=O)N(c2ccc(Br)cc2)C1c1ccc(Br)cc1 (centres unmarked) | 10.2%
65 | CCC(C)NC(=O)C1=C(C)C(=O)OC12CCC(C)CC2 (centres unmarked) | 15.1%
66 | COc1ccccc1CCNC(=O)C1CCCO1 (centres unmarked) | 6.2%
67 | O=C(COc1ccccc1/C=C\c1[nH]c(=O)[nH]c(=O)c1[N+](=O)[O-])Nc1ccccc1 | 10.9%
68 | Cc1sc2nc(CSC(C)C(=O)Nc3ccccn3)[nH]c(=O)c2c1C (centres unmarked) | 0.571%
69 | Cc1nc(NC(=O)CSc2nncs2)c(Cl)cc1Cl | 10.5%

Row | Structure (SMILES) | hERG current change (%, negative = inhibition) at 1uM
70 | O=C(N/N=C/c1coc2ccccc2c1=O)c1ccccc1Br | 5.95%
71 | CCOC(=O)Cn1c(=O)oc2cc(S(=O)(=O)Nc3ccc(N(CC)CC)cc3C)ccc21 | 6.25%
72 | COc1ccc(-c2nnc(SCC(=O)c3cccs3)o2)c(OC)c1 | 9.66%
73 | CC(C)(C)c1cc(C(=O)NNC(=O)c2ccc(C(F)(F)F)cc2)no1 | 9.67%
74 | Cn1nc(Cc2cccc3ccccc23)c(C#N)c1N | 12.1%
75 | CCOc1ccc(-n2c(SCc3nc(-c4cccs4)no3)nnc2-c2ccncc2)cc1 | -4.26%
76 | CCCCn1c(N)c(N(CCOC)C(=O)c2cc(S(=O)(=O)N3CCCCC3)ccc2C)c(=O)[nH]c1=O | 15.4%
77 | CN(Cc1cnn(C)c1)C(=O)c1ccc(OC2CCN(CCc3ccccc3)CC2)cc1 | -8.79%
78 | CC(Sc1nc(C2CC2)n(-c2ccccc2)n1)C(=O)c1c(N)n(C)c(=O)n(C)c1=O (centres unmarked) | -3.62%
79 | CN(CC(=O)Nc1cccc(F)c1)C(=O)c1cn2ccccc2n1 | 4.27%
80 | Cc1ccc(S(=O)(=O)N2CCOCC2)cc1NC(=O)c1cc([N+](=O)[O-])ccc1N1CCOCC1 | 3.27%
81 | O=C(COC(=O)/C=C/c1nc2ccccc2s1)Nc1ccccc1Oc1ccccc1 | 2.48%
82 | Cc1cccc(C(=O)NNC(=O)c2ccccc2O)c1 | 7.05%
83 | Cc1cccc(-c2nnc(SCc3ccc(C#N)cc3)n2Cc2ccco2)c1 | -44%
84 | CCOc1ccc(NC(=O)CCC(=O)c2ccc(OC)cc2)cc1 | 16.1%
85 | CN(C1=C(NC(=O)c2ccccc2)C(=O)c2ccccc2C1=O)C1CCS(=O)(=O)C1 (centres unmarked) | -8.59%
86 | c1ccc(-c2oc3ncnc(NCCN4CCOCC4)c3c2-c2ccccc2)cc1 | 9.8%
87 | CC1CCCN(CCCNC(=O)CCn2nc(-c3ccccc3)ccc2=O)C1 (centres unmarked) | -7.17%
88 | COc1ccc(NC(=O)OCC(C)C)cc1OC | 10.7%
89 | Cc1ccc(S(=O)(=O)NC(C(=O)Oc2cc3oc(=O)cc(C)c3cc2Cl)C(C)C)cc1 (centres unmarked) | -9.51%
